Data published in the supplement of paper PMC10126150.
Sequences with one replicate were seen in a single cluster, so their values are uncertain.

System: ATP
Assay: switch fluorescence ratio, 500 uM ATP over buffer (Cy3 cluster intensity, sum of 5 cycles each) (fold (ratio)); higher = stronger signal-on switching upon ATP binding; sequences stand for … in TCGTCGGCAGCGTCAGATGTGTATAAGAGACAGTTTTTTTTTTTTTTTTTTTTTTTTT…TC
Settings: aptamer strand: ATP DNA aptamer (quencher-CACCTGGGGGAGTATTGCGGAGGAAGG + anchor), 100 nM annealed; ATP concentration: 500 uM; one replicate
Procedure, shortened: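 Five buffer/ATP imaging cycles were run on Cy3-labelled switching-strand clusters on a modified Illumina MiSeq flow-cell, with NaOH stripping and re-annealing between cycles. In each cycle, clusters annealed to 100 nM quencher-labelled ATP aptamer were imaged in selection buffer, then after 15 min with 500 uM ATP at 22 °C. Per cluster, the fluorescence ratio is summed target-cycle over summed buffer-cycle Cy3 intensity, averaged per switch-domain sequence. Only clusters within 100-1000 RFU were kept.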
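Further: ATP exposure 15 min at 22 °C before imaging.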

Sequence	switch fluorescence ratio
ACCCCTGTAC	1.52
TCCCAGCCCA	0.978
AGTGGGATGT	0.969
TCATCAGAAT	1.05
TAGAGAAAAA	1.01
GTTTTATAGA	1.01
CAGGCGGGGT	0.988
TGCCGTAGGA	1.04
TGAGCGGTTA	1
GCCGCATA	1.55
GACATGGTTG	1.01
GGAAGGTCAT	0.94
CTTCAAAAGT	1
TGAGTGTCAG	0.961
ACAGCTAGTT	1.05
CTCTGTGGAG	0.979
GTGGGGGGG	0.963
TCGTTTGTGC	0.995
GAACGTGTGA	0.999
AACACGGTAC	1.7
CATTGGCGAT	1.12
TAAAGAAATT	1.22
GGATGGTCAG	0.995

Sequence	switch fluorescence ratio
AAATTTACCC	1.05
TTTTGCTTAT	0.954
ATTAAGGCAG	1
GGGTTCAATA	1.02
GAGTAACGCG	1.06
TGATCATTCC	1.38
AGATTTCACG	1.02
TTGAGAACAA	0.974
TATTTTGGC	1.1
CCTTCAGAGT	1.08
TATTCAAGAG	1.01
AGACTGAATA	1.03
AACTAGACTA	1.02
TTTTACGT	1.02
TATAATGGGA	1.02
GTGTATAATG	1.01
GTTGTGGAGG	0.955
GTGATGTAGC	1.05
AAAGAAAGGC	0.983
CATCTGAAAT	1.19
TGAATTTT	1.03
GCTCTTCAGG	1.04
AATCAGTGTG	1.01

Sequence	switch fluorescence ratio
TCTGATCATG	0.991
TCTATGTATG	0.983
AGAAAGTCAT	0.969
GCAAAGGACC	1.4
TTTGACAGT	0.992
CAATGCATGT	1.02
ACGTCATAGG	1.22
ACTCTAGAGA	1.06
AAGGCATAGA	0.957
TCTATTCAGT	1.02
AGGGAAAACG	0.994
TAGCGCTGCT	0.981
GGAGTGCGCA	1.02
GGGACGGAG	1.02
ACTATAGACT	1.05
AGAATAGATG	0.971
ACGAGGGACG	0.993
CTAGACAGGA	1.01
TTACACGCTG	0.989
ACCAGGTTAA	1.03
AGTGACGA	0.989
TGTCGGGGTC	1
AGTTAGGTCT	0.935

Sequence	switch fluorescence ratio
TGGCTTTTCC	0.971
AAGCCCGCAA	2.17
ACCGTGGTCA	1.01
GTCGACACGT	1
ATGGATTGAG	1
ACCTGCGGGA	1.12
AAGCGGGAAT	0.982
TATGTGTTCT	1
CGCAAAAATT	5.13
TCAGTTGCCA	0.99
ATCCACCCCT	1.11
GCGAACGCGT	0.992
GTTCTGACGA	1.14
GAATCCGGT	1.02
ATTGGTGGAC	0.989
AGGTCACTGC	0.951
CTGGATTCGA	1.01
CGAGAATAGG	1.01
GGGGCCTAAA	0.996
TAGTTCAAAA	1.02
ACCTCCCCCT	1.93
GCACTCGAGT	0.996
TGGGGGGGC	1.01

Sequence	switch fluorescence ratio
ACACTAACGT	1.44
TTCCGTTTTC	1.24
GCCAGGATTC	1.04
GGGAAAAGCA	0.983
ACAGGCTAAT	1
ATACGGCAGT	1.03
AAGATTTCCC	1.01
TGCGGCTTAG	1.05
GTTGCATGAT	0.931
GTCTACGTAC	1.56
AGCGTTAACT	1.01
TCTGGGGGCC	1.03
ACGCGGTCGC	1
CATCCGGGCC	1.06
GTGGGCGGTA	1.04
ACGCTGTTCT	1.02
GTTGGGTCGT	0.987
TCGGACTCAA	2.47
AAGTATAGCC	1
GCGGACGTTG	0.996
GCGTTATTCT	1.01
CGGGGACACG	1.03
CATAGAACGT	1.04

Sequence	switch fluorescence ratio
CGTACCAGAG	1.02
CGGTGCTGTA	1.06
AGCCCAGGAA	1.22
ACGCATAGAT	1.16
AGTACCTGTG	1.02
CACCTGTATT	1.01
GAATCGGTCG	1.06
TCAATAAGTC	0.988
GAAGAATTTA	0.991
CGGAGAGGAG	0.975
GTGTGGAATG	0.959
GGTGCAGCGA	1.04
AAATACTACA	1.08
AAGTTCGACT	1.01
GAGAGGGT	0.961
CTTGGCCTTT	0.985
CCAAATCGAG	1.01
CGTTAACAAT	1.02
CACCTGGGTA	1
TAGGCCAC	0.982
TATTAGCTGA	1.05
CCGCCTGCAC	4.55
TATATCTTAA	0.979

Sequence	switch fluorescence ratio
CGCGGCTGGA	1
TCCCCAACGA	1.04
GTGTCACGCA	1.01
TGTCTTATAG	0.982
TGGTTTGCGT	0.986
CAGCAACTTA	1.1
CTGTAGCCTC	1.86
AGTGAAGCGG	0.959
AATTTCATGG	0.964
ACGATATTAG	1.13
TAAACCGGGG	1.05
TCGTGTCAAA	0.996
GGATAAACGC	1.01
AACGTACGCC	1.48
CTCTACAGCG	0.995
ACAACCTAG	1.08
GATTATCCGG	1.01
CGGTTGTAAG	1.01
GCAGTTTTGC	1
